Measured values from the supplement of paper PMC10126150.
Values marked as one replicate rest on one cluster of the flow cell; about a third of the high ones do not repeat.

These sequences were tested on ATP (assay: switch fluorescence ratio, 500 uM ATP over buffer (Cy3 cluster intensity, sum of 5 cycles each) (fold (ratio)); higher = stronger signal-on switching upon ATP binding; sequences stand for … in TCGTCGGCAGCGTCAGATGTGTATAAGAGACAGTTTTTTTTTTTTTTTTTTTTTTTTT…TC). Settings: aptamer strand: ATP DNA aptamer (quencher-CACCTGGGGGAGTATTGCGGAGGAAGG + anchor), 100 nM annealed; ATP concentration: 500 uM; one replicate.
In short: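 Cy3-labelled switching-strand clusters on a modified Illumina MiSeq flow-cell were annealed to 100 nM quencher-labelled ATP aptamer, imaged in selection buffer, then imaged after 15 min with 500 uM ATP at 22 °C. Five buffer/ATP cycles ran, with NaOH stripping and re-annealing between them. The fluorescence ratio is summed target-cycle over summed buffer-cycle Cy3 intensity per cluster, averaged per switch-domain sequence. Clusters outside 100-1000 RFU were excluded.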
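Further: ATP exposure 15 min at 22 °C before imaging.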

| Sequence | switch fluorescence ratio |
| --- | --- |
| GAAGGTGTAT | 1.14 |
| GAAGTACGCC | 1.12 |
| GAAGTCAACT | 0.999 |
| GAAGTCAGCT | 0.99 |
| GAAGTCCGAA | 0.976 |
| GAAGTCTATA | 0.999 |
| GAAGTGAGGC | 1.06 |
| GAAGTTGAGC | 1.03 |
| GAATAAAGCT | 1.12 |
| GAATAAGGCG | 1.05 |
| GAATAAGGTT | 1.01 |
| GAATAATCG | 0.972 |
| GAATACAAGT | 0.966 |
| GAATACTTG | 1.01 |
| GAATAGAAAG | 0.978 |
| GAATAGGGAT | 1.04 |
| GAATAGTCAC | 0.98 |
| GAATCATGTA | 0.99 |
| GAATCCGCGT | 2 |
| GAATCGAAAA | 1.04 |
| GAATCGTGTT | 0.978 |
| GAATCTATAT | 0.98 |
| GAATCTGATC | 0.992 |
| GAATGAAACT | 1.04 |
| GAATGATAAT | 1.03 |

| Sequence | switch fluorescence ratio |
| --- | --- |
| GAATGCGCTG | 1.02 |
| GAATGGACGG | 1.03 |
| GAATGGCAGC | 1.02 |
| GAATGTGGTA | 0.971 |
| GAATTCTGCT | 1 |
| GAATTTTCCT | 1.03 |
| GACAAAACGA | 0.995 |
| GACAAACTGT | 1.12 |
| GACAAAGCGC | 1.04 |
| GACAAATCGG | 0.979 |
| GACAAGAGGT | 1.03 |
| GACAATCAAA | 1 |
| GACAATGAAC | 1.1 |
| GACAATGGGT | 0.965 |
| GACACACTAG | 1.14 |
| GACACGGACA | 1.44 |
| GACACGTTGC | 1.12 |
| GACACTGGGA | 1 |
| GACACTTTGA | 1.01 |
| GACAGAAATA | 1.03 |
| GACAGCACGG | 1.15 |
| GACAGCGCT | 1.04 |
| GACAGCGTCG | 1.01 |
| GACAGCTTGT | 1.01 |
| GACAGGGGGC | 1.04 |

| Sequence | switch fluorescence ratio |
| --- | --- |
| GACAGGGTGT | 1.16 |
| GACAGTCTT | 0.991 |
| GACAGTTTTT | 0.988 |
| GACATAAAGC | 1.33 |
| GACATAAGGT | 0.973 |
| GACATATAAA | 1.02 |
| GACATATGGA | 1.01 |
| GACATCCCGG | 0.947 |
| GACATGCGGG | 1.06 |
| GACATTACAT | 1.14 |
| GACATTCAAT | 1.02 |
| GACCAAAACC | 1.04 |
| GACCAAAAGG | 0.996 |
| GACCAAGATA | 0.999 |
| GACCAAGCCT | 1.08 |
| GACCAATACG | 2.21 |
| GACCACCAAC | 1.23 |
| GACCACGTGC | 1 |
| GACCACTGTG | 1.13 |
| GACCAGCGGC | 1.02 |
| GACCAGGCTA | 1.01 |
| GACCCATAGC | 1.05 |
| GACCCTAGCA | 1.09 |
| GACCGAGTAA | 1.29 |
| GACCGAGTCC | 1.62 |

| Sequence | switch fluorescence ratio |
| --- | --- |
| GACCGCCATC | 2.7 |
| GACCGCCGGG | 1.15 |
| GACCGCGGCA | 1.06 |
| GACCGGGTC | 0.997 |
| GACCTACCCG | 1.28 |
| GACCTAGTAG | 0.961 |
| GACCTCGTAG | 0.931 |
| GACCTTGCGA | 1.54 |
| GACGACCAGT | 1.05 |
| GACGACGTGG | 1.03 |
| GACGAGACGG | 1.07 |
| GACGATGTC | 1.03 |
| GACGATGTTA | 1.04 |
| GACGCCAATG | 1.06 |
| GACGCTCAGG | 1.13 |
| GACGCTTGTG | 1.05 |
| GACGGAAAA | 1.06 |
| GACGGAAACG | 0.98 |
| GACGGAGGTA | 1.09 |
| GACGGAGTGT | 1.03 |
| GACGGATCGC | 1.05 |
| GACGGCTCGG | 0.986 |
| GACGGCTGGG | 0.96 |
| GACGGGTAAC | 1.03 |
| GACGGTAATG | 1.08 |

| Sequence | switch fluorescence ratio |
| --- | --- |
| GACGGTAGCC | 1.09 |
| GACGGTATAT | 1.22 |
| GACGTGATGG | 1.28 |
| GACGTGGTGC | 1.2 |
| GACGTGTACT | 1.2 |
| GACGTTAACA | 1.11 |
| GACGTTAAGT | 1.03 |
| GACGTTACC | 1.78 |
| GACGTTACGT | 1.15 |
| GACTAAGCTA | 1.15 |
| GACTAGACTA | 1.03 |
| GACTAGGGTA | 0.952 |
| GACTAGTAGC | 0.985 |
| GACTATATGT | 0.981 |
| GACTCAAATG | 0.989 |
| GACTCACTGG | 1.07 |
| GACTCCCACG | 1.01 |
| GACTCGCCAA | 1.98 |
| GACTCGGAGC | 1.01 |
| GACTCTGGT | 0.942 |
| GACTCTGGTT | 1 |
| GACTGCAGAA | 1.08 |
| GACTGCTACA | 1.37 |
| GACTGTCGCC | 1.04 |
| GACTTAATGT | 1.01 |

| Sequence | switch fluorescence ratio |
| --- | --- |
| GACTTATTTG | 0.995 |
| GACTTCGTAG | 0.965 |
| GACTTCTTCA | 1.04 |
| GACTTGTAGA | 1.03 |
| GACTTTGAGG | 0.995 |
| GAGAACGGAT | 0.973 |
| GAGACAGCGA | 1.09 |
| GAGACAGTGT | 1.02 |
| GAGACCCGTT | 0.989 |
| GAGACGGGCA | 1.04 |
| GAGACGTTTA | 1.06 |
| GAGACTAAAT | 1.01 |
| GAGACTTAGG | 1.02 |
| GAGAGACTTT | 1.02 |
| GAGAGAGATA | 0.995 |
| GAGAGCTCTC | 1.04 |
| GAGAGCTTTT | 0.994 |
| GAGAGGCAGT | 1.01 |
| GAGAGGGCGA | 1.01 |
| GAGAGGGCTA | 0.951 |
| GAGAGGGTGC | 1.07 |
| GAGAGTTAGC | 1.05 |
| GAGATACTGG | 1.04 |
| GAGATCAACC | 0.981 |
| GAGATCAGGT | 0.981 |

| Sequence | switch fluorescence ratio |
| --- | --- |
| GAGATCCGGC | 0.978 |
| GAGATCGACT | 0.98 |
| GAGATCGGAA | 1.01 |
| GAGATGACCA | 1.08 |
| GAGATGGGAC | 0.983 |
| GAGATGTGTG | 0.955 |
| GAGATTATAC | 0.976 |
| GAGATTTTGG | 0.987 |
| GAGCAAAGAA | 1.07 |
| GAGCACAACG | 0.982 |
| GAGCATCACG | 1.06 |
| GAGCATGAGA | 1.08 |
| GAGCATGATA | 1.03 |
| GAGCATTAGG | 1.03 |
| GAGCCCGAGG | 1.1 |
| GAGCCCGTTG | 0.941 |
| GAGCCGCACT | 1.1 |
| GAGCCGCCAA | 1.46 |
| GAGCCTCCCT | 1.14 |
| GAGCCTTGGT | 0.95 |
| GAGCCTTTCG | 1.32 |
| GAGCGCTCCA | 0.973 |
| GAGCGGCTAT | 1.01 |
| GAGCGTAATT | 1.02 |
| GAGCGTCCCC | 1.02 |

| Sequence | switch fluorescence ratio |
| --- | --- |
| GAGCTAGATT | 0.976 |
| GAGCTCAGCG | 0.994 |
| GAGCTGAACC | 0.99 |
| GAGCTGGCTG | 0.986 |
| GAGCTGGGGT | 0.99 |
| GAGCTGTCCG | 1.02 |
| GAGCTTAAAA | 1.06 |
| GAGCTTAGGC | 0.896 |
| GAGCTTTTTG | 1.02 |
| GAGGAAGATG | 0.951 |
| GAGGAAGGTA | 1.03 |
| GAGGAATAGC | 1.05 |
| GAGGAATATA | 0.974 |
| GAGGACATCC | 1.04 |
| GAGGACTGTT | 1.14 |
| GAGGACTTAT | 1.05 |
| GAGGAGGTGT | 0.985 |
| GAGGAGTCTG | 0.959 |
| GAGGAGTGTT | 0.988 |
| GAGGATCAAA | 0.965 |
| GAGGCAGATG | 1.04 |
| GAGGCAGGAG | 1.15 |
| GAGGCCTCTA | 1.01 |
| GAGGCCTGGT | 0.965 |
| GAGGCGCTGG | 0.996 |
